According to the supplement of paper PMC5499739:
In all, about 16,000 sequences were measured (“Z-score”: median about -0.37, highest 2% from about 3.1 on). Some of the results follow.

tested on: RBM10 RRM1-ZnF-RRM2 (GST-tagged construct); assay: RNAcompete 7-mer binding Z-score; higher = stronger binding preference
In short: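 GST-tagged RBM10 constructs (20 pmol) were mixed with a designed pool of 241 399 RNAs up to 41 nt (1.5 nmol), transcribed from microarray-derived DNA templates. Mixing was in 1 ml Hepes pH 7.8 buffer with KCl, NaCl, glycerol, DTT, BSA and glutathione Sepharose beads. Binding ran 30 min at 4°C, followed by four 2-min washes at 4°C, and bound RNA was identified by microarray hybridisation. Each heptamer motif received a one-sided Z-score for enrichment across probes containing it.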

Row | Sequence | RNAcompete 7-mer binding Z-score
1 | UAGCACU | -0.424
2 | UAACUCU | -0.817
3 | UCUGGCU | -0.723
4 | CCUGCAC | -0.668
5 | UUCCGUA | -0.551
6 | UUGCUAU | -0.584
7 | CACUUCA | -0.734
8 | CCCAGGU | -0.0343
9 | CGGAAUA | 0.65
10 | AGCAGUA | 0.148
11 | CAUUAAC | -0.646
12 | AUACCCA | -0.635
13 | UAUCCUU | -0.788
14 | CUACUAU | -0.657
15 | AUCCAUC | -0.737
16 | UGUGUCU | -0.351
17 | AUCACUU | -0.887
18 | CGAAGGG | 2.68
19 | CUGAAAA | -0.511
20 | UGUACUC | -0.643
21 | CCCGGGU | 0.235
22 | UCGUGGU | 0.359
23 | GCGUGCU | -0.318

Row | Sequence | RNAcompete 7-mer binding Z-score
24 | AUGCCAG | -0.202
25 | AGAUUCA | -0.304
26 | GUCUUCC | -0.533
27 | ACGCUCU | -0.737
28 | GAAUGAG | 1.28
29 | CAGUAUA | -0.133
30 | UACAGAC | -0.344
31 | GCCGUCU | -0.755
32 | UGUUAGC | -0.679
33 | AUUUUUA | -0.643
34 | UGGAAGU | 1.6
35 | GAGUCCU | -0.453
36 | ACUGUAU | -0.555
37 | AGUAUUA | -0.216
38 | CGGAGGC | 1.24
39 | CCUGCAG | -0.788
40 | AUACCGU | -0.482
41 | CGGCGUC | 0.0204
42 | UGCUCUC | -0.741
43 | GCCACGC | -0.366
44 | GCAAAUC | -0.358
45 | CGGCCCA | -0.617
46 | CCUUGGA | -0.475

Row | Sequence | RNAcompete 7-mer binding Z-score
47 | UCCUCUU | -0.613
48 | GUGCAAG | 0.844
49 | GAGUUUA | -0.0488
50 | CACUACG | -0.409
51 | CGCUACA | -0.621
52 | CGCAGAC | -0.322
53 | CCUCUUA | -0.843
54 | GCUAAGA | -0.187
55 | CGGAUAC | 1.07
56 | CUCAUCC | -0.836
57 | GGAUCAU | 0.749
58 | AGCCUCC | -0.759
59 | GGAGAGU | 1.69
60 | CUCGUUC | -0.61
61 | CUGAAGG | 0.902
62 | UCUUUAG | -0.723
63 | AUUGGGU | 2.74
64 | CCGGGUC | 0.538
65 | UAGGUAG | 2.27
66 | AAUGACA | 0.0969
67 | AGGCCCA | -0.846
68 | GUUUCUA | -0.537
69 | CACUCGA | -0.719

Row | Sequence | RNAcompete 7-mer binding Z-score
70 | CAUAGUC | -0.548
71 | AAAGUGC | -0.0197
72 | UCCCAUU | -0.843
73 | AACCCGA | -0.737
74 | CCGUGGA | 0.0896
75 | UUGUUUU | -0.366
76 | CAUUGAA | -0.311
77 | AGUUUCG | -0.453
78 | CCCUAGC | -0.788
79 | CGAACCA | -0.453
80 | AACAAGU | -0.125
81 | UGGAUUC | 0.126
82 | GGUAUUU | 0.177
83 | AGGCAUU | -0.0889
84 | AGCUGCU | -0.559
85 | GCCACCC | -0.89
86 | UACCCGG | -0.231
87 | GCUUCAC | -0.686
88 | GAAUCCA | -0.366
89 | CAUUAUG | -0.428
90 | UGGACUC | -0.136
91 | CAGACAG | 0.0896
92 | UAGGAGA | 1.78

Row | Sequence | RNAcompete 7-mer binding Z-score
93 | UAGCCGA | -0.573
94 | UGCCCUA | -0.93
95 | UUGUCCA | -0.828
96 | UGGGGUG | 4.14
97 | CCCUUAG | -0.777
98 | CCGGUGU | 0.0823
99 | AGCUCAA | -0.712
100 | GUUUCCG | -0.475
101 | AUCGGAG | 0.884
102 | GCGCACC | -0.395
103 | UUCGUCA | -0.402
104 | CCGUAAU | -0.643
105 | CGGAAAU | 0.319
106 | ACCGAAC | -0.544
107 | GUAGGAG | 3.78
108 | ACUGUGU | -0.42
109 | AGACUGG | 0.654
110 | CCGACUU | -0.897
111 | UCAGACG | -0.0343
112 | GAAGACC | -0.256
113 | AGUAUCA | -0.22
114 | CUGUUGC | -0.803
115 | ACUGUGG | 0.796

Row | Sequence | RNAcompete 7-mer binding Z-score
116 | CUCCGUU | -0.905
117 | AAAACCC | -0.846
118 | UUAUCGC | -0.927
119 | ACGUCUC | -0.708
120 | AUCGGAU | 0.253
121 | GAGCUAC | -0.224
122 | UGACAUA | -0.326
123 | AGGCCGG | 0.235
124 | GCGGUCC | -0.271
125 | CAAUUGU | -0.734
126 | AUGGAUG | 2.59
127 | GGGGUAG | 4.58
128 | AACGCUA | -0.453
129 | UAAUGGU | 0.814
130 | GUACCUG | -0.439
131 | CAUCGUG | -0.173
132 | CUCUCCG | -0.894
133 | GAGCGCG | 0.297
134 | CGAAGUA | 0.101
135 | CGUGAGC | -0.242
136 | CGCAACU | -0.825
137 | UCGCAAU | -0.577
138 | CUCUCCA | -0.799

Row | Sequence | RNAcompete 7-mer binding Z-score
139 | ACGACGC | 0.00216
140 | CCCUAUC | -0.894
141 | UGUUUUU | -0.46
142 | GGGACAU | 1.96
143 | CGACGUU | -0.679
144 | GAGUGGA | 3.07
145 | GUCCUAC | -0.697
146 | CCGAUGA | -0.318
147 | GCCUGAC | -0.694
148 | CAAUCUC | -0.81
149 | UAUCCGC | -0.883
150 | AAGGCCC | -0.249
151 | UCCUCUG | -0.694
152 | CGUCAUC | -0.599
153 | UAAAAGA | -0.111
154 | AUUAUCA | -0.464
155 | UUUGUUC | -0.632
156 | UAUGGUU | 1.29
157 | AGCACUU | -0.526
158 | GUCAUCG | -0.118
159 | UGUUUAG | -0.286
160 | AGAUAAG | 0.989
161 | GUUGCUU | -0.577

Row | Sequence | RNAcompete 7-mer binding Z-score
162 | GCUUACU | -0.734
163 | AUACGGG | 2.14
164 | GGCGUGC | 0.92
165 | GACACAG | 0.61
166 | UAGACGC | -0.333
167 | CAGCCUC | -0.741
168 | AGGCGGA | 1.7
169 | GCGUUUA | -0.551
170 | UAGCCGU | -0.479
171 | AUGCGAA | 0.228
172 | UGUGUGG | 1.79
173 | GACUCGC | -0.774
174 | AAGUGCG | 0.698
175 | UAUCGUG | -0.0561
176 | GGUCUGG | 0.563
177 | GUGGAGA | 2.57
178 | UCCUCCC | -0.592
179 | AAGUUGU | -0.0343
180 | UUCAACA | -0.373
181 | GAUAACC | -0.417
182 | AUUGGGG | 3.16
183 | AGGUCAC | -0.195
